# Data published in PubChem BioAssay AID1345083 (National Center for Advancing Translational Sciences (NCATS), 2018).
# Hit rate of the full screen: of about 94,000 compounds, about 6,200 (6.6%) were called active. The shares of active, inactive and inconclusive entries below differ from those in the screen. Calls follow the shape of the dose curve; as a rule, active = well fitted inhibition curve with a large enough effect; inconclusive = small, poorly fitted or top-dose-only effect; inactive = flat fitted curve, though single readings scatter. Potencies beside an inconclusive call are fits to weak or partial responses and may not hold up.
# Experiment: Cytotoxic Profiling in HEK 293 Cell Line of Diverse Libraries Using Quantitative High-Throughput Screening; also: nearly all actives have a fitted effect of over 60% in size
# Conditions: HEK 293 viability, ATP luminescence (CellTiter-Glo), 48-72 h; series mostly up to 115 µM
# Summary of the method: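 qHTS cytotoxicity; HEK 293, 250 cells/well; compound pinned; 48 or 72 hr, 37 degree Celsius, 5% CO2, 95% humidity; CellTiter-Glo, 10 min RT; luminescence (ATP).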
# Potency is read from the fitted curve at half-maximal effect; tags tell the direction and shape of the fitted curve.
row,SMILES,Potency
1,Cc1ccc(C)c(CN2CCn3c(nn(CCCOc4ccc(F)cc4)c3=O)C2=O)c1,"inconclusive: 89.1 µM [inhibitor, single point]"
2,CN(C)CCC(=O)N1Cc2ccccc2CC2(CCCN2Cc2cccnc2)C1 (centres undefined),inactive
3,Cc1noc(C)c1C(=O)N1CCC(N2C(=O)c3c(c(C)nn3-c3ccccc3)C2C(C)C)C1 (centres undefined),inactive
4,COc1ccc(-c2cccc(C(=O)NC3CC3)c2)nn1,inactive
5,COc1ccc(-c2nc(C)nc3c2CN(C(=O)Nc2ccc(Cl)cc2)CC3)cc1,"inconclusive: 79.4 µM [inhibitor, partial curve, poor fit]"
6,CC(=O)NC[C@H]1OC[C@@H](NC2CCC2)[C@@H]1O,inactive
7,COc1cccc(CNC(=O)c2cn3cc(-c4cccc(OC)c4)sc3n2)c1,"inconclusive: 50.1 µM [inhibitor, partial curve, poor fit]"
8,O=C(N[C@H]1CO[C@H]2[C@@H]1OC[C@@H]2Nc1nccc(-c2ccccc2)n1)N1CCOCC1,inactive
9,Cc1noc(C)c1-c1cc2cc(CO)oc2c(NCC2CCOCC2)n1,"inconclusive: 56.2 µM [inhibitor, partial curve, poor fit]"
10,O=C(NC1CCN(c2ccc3nnc(-c4ccccc4)n3n2)CC1)c1ccccc1Cl,"inconclusive: 44.7 µM [inhibitor, partial curve, poor fit]"
11,O=S(=O)(N[C@H]1CO[C@H]2[C@@H]1OC[C@@H]2n1cc(-c2ccccn2)nn1)c1cccs1,"inconclusive: 100 µM [inhibitor, partial curve]"
12,CN(Cc1ccccc1)Cc1cc(C[C@@H]2CC[C@H](O)[C@@H](CNC(=O)c3cccc(F)c3)O2)no1,"inconclusive: 89.1 µM [inhibitor, single point]"
13,CN1CCCN(S(=O)(=O)c2ccccc2Br)c2ccccc21,"inconclusive: 50.1 µM [inhibitor, partial curve, poor fit]"
14,CN(C)CCCC(=O)N1Cc2ccccc2CC2(CCN(CC3CCOCC3)CC2)C1,inactive
15,CCC(C)NC(=O)CN1C(=O)NC2(CCC(C(C)(C)C)CC2)C1=O (centres undefined),"inconclusive: 3.16 µM [inhibitor, partial curve, poor fit]"
16,O=C1CCN([C@@H]2CCC[C@H]2O)c2cc3c(cc2CN1Cc1ccccc1)OCO3,"inconclusive: 35.5 µM [inhibitor, partial curve, poor fit]"
17,COc1ccccc1-c1cc(N2CCN(c3ccccn3)CC2)c2onc(C)c2n1,"inconclusive: 63.1 µM [inhibitor, full curve]"
18,COc1cccc(-c2noc(CC3CCN(C(=O)COc4cccc(C)c4)CC3)n2)c1,"inconclusive: 50.1 µM [inhibitor, partial curve, poor fit]"
19,CCNC(=O)N1CCCC1c1noc(CCC(=O)NC(C)C)n1 (centres undefined),inactive
20,CN1c2cc(C(=O)Nc3ccc(F)c(F)c3)ccc2C(=O)N2CCCCCC21 (centres undefined),"inconclusive: 17.8 µM [inhibitor, full curve, poor fit]"
21,Cc1cnc(CC2CCN(C(=O)COc3ccc(F)cc3)CC2)n1Cc1ccc(F)cc1,"inconclusive: 50.1 µM [inhibitor, partial curve, poor fit]"
22,CSc1ccc(NC(=O)C2CCN(C(=O)c3ncn4c3COC(c3ccc(F)cc3)C4)CC2)cc1 (centres undefined),"inconclusive: 89.1 µM [inhibitor, single point]"

row,SMILES,Potency
1,CCOc1cc(=O)n2c(c1C(=O)NCC1CCCCC1)CCCCC2,inactive
2,CN1C(=O)[C@@H]2C[C@@H](CN2C(=O)NCc2ccccc2)Oc2ccccc21,"inconclusive: 126 µM [inhibitor, single point]"
3,CC1=C[C@@H](CNCc2ccccn2)[C@H](C(C)C)C[C@H]1Cc1nnc(-c2ccccc2F)o1,active: 22.4 µM
4,CC1(C(=O)NC2CCC2)CN(Cc2ccccc2)Cc2ccc(N3CCOCC3)nc21 (centres undefined),"inconclusive: 89.1 µM [inhibitor, partial curve]"
5,COCC1CN(C)CC12CCN(C(=O)COc1cccc(C)c1)CC2 (centres undefined),"inconclusive: 56.2 µM [inhibitor, partial curve, poor fit]"
6,COc1ccc(Nc2n[nH]c(C(O)c3cccc(C(F)(F)F)c3)n2)cn1 (centres undefined),"inconclusive: 100 µM [inhibitor, partial curve]"
7,COC(=O)N1CC(N2C(=O)c3c(c(C)nn3-c3ccccc3)C2C2CC2)C1 (centres undefined),"inconclusive: 79.4 µM [inhibitor, partial curve, poor fit]"
8,O=C(c1ccn[nH]1)N1CCCCC1c1noc(COc2ccc(F)cc2)n1 (centres undefined),"inconclusive: 56.2 µM [inhibitor, partial curve, poor fit]"
9,CC(=O)N1CCN(C(=O)C2CCCN(Cc3cccc(-c4ccc(F)cc4F)c3)C2)CC1 (centres undefined),"inconclusive: 89.1 µM [inhibitor, single point]"
10,O=C(O)C1=NOC2CN([S+](=O)([O-])CCC(F)(F)F)CC12 (centres undefined),inactive
11,Cc1nn(-c2ccccc2)c2c1C(C)N(C1CCCN([S+](=O)([O-])c3ccccc3)C1)C2=O (centres undefined),"inconclusive: 20 µM [inhibitor, full curve, poor fit]"
12,CCc1noc(-c2cn(C3CCN(C(=O)c4cccn4C)CC3)nn2)n1,inactive
13,CCC1CN(Cc2cn(Cc3ccccc3)nc2-c2cc3ccccc3o2)CCO1 (centres undefined),"inconclusive: 50.1 µM [inhibitor, partial curve, poor fit]"
14,O=C1NCCCCCCN(C(=O)CN2CCCCCC2)[C@H]2C[C@H](c3nc(-c4cccnc4)no3)C[C@@H]12,inactive
15,O=C1[C@@H]2C[C@@H](O)CN2C2(CN(C3CCCCC3)C2)C(=O)N1Cc1ccccc1Cl,inactive
16,C=CCN1C[C@@]2(C(=O)O)CN(c3nccc4ccccc34)C[C@H]2C1=O,inactive
17,CN(C)c1ccc(C(=O)NCC2CCN(c3cc(-c4ccc(F)cc4)[nH]n3)CC2)cc1,"inconclusive: 39.8 µM [inhibitor, partial curve, poor fit]"
18,COc1ccc(Nc2cnc3ccc(N(C)Cc4cccnc4)nn23)cc1,"inconclusive: 100 µM [inhibitor, partial curve, poor fit]"
19,O=C(NCc1cccs1)c1nc(-c2ccc(F)cc2)c2cnccn12,"inconclusive: 39.8 µM [inhibitor, partial curve, poor fit]"
20,CCn1nccc1C(=O)N1CCC(c2nc(C3CCOCC3)no2)CC1,inactive
21,COCC(=O)NC1CCN(Cc2cccc(-c3ccccc3OC)c2)CC1,inactive
22,COc1cccc(CN2CC[C@H](c3nc4ccccc4[nH]3)C2)c1,"inconclusive: 100 µM [inhibitor, partial curve, poor fit]"

row,SMILES,Potency
1,CCOC(=O)[C@H]1[C@@H](O)C(=O)N(Cc2ccccc2)C12CCN(C(=O)C1CCC1)CC2,"inconclusive: 100 µM [inhibitor, partial curve, poor fit]"
2,CC1(C)[C@H](Cc2cc(CC3CCCCC3)on2)C[C@@H]1NC1CCOCC1,active: 28.2 µM
3,Cc1ccccc1C(=O)NC1CCCN(c2ccnc3ccnn23)C1 (centres undefined),"inconclusive: 89.1 µM [inhibitor, single point]"
4,COC(=O)C1=C(C)N=C2SC=C(CC(=O)N3CCCC3)N2C1c1ccc(OC)cc1 (centres undefined),"inconclusive: 89.1 µM [inhibitor, single point]"
5,OCCC1CN(c2cc(C(F)(F)F)ccn2)CCN1CC1CCCCC1 (centres undefined),"inconclusive: 89.1 µM [inhibitor, partial curve, poor fit]"
6,COc1ccccc1CNC(=O)c1cc2c(N3CCSCC3)nc(C)cn2n1,"inconclusive: 50.1 µM [inhibitor, partial curve, poor fit]"
7,CCCC(=O)NC[C@@H]1CC[C@H]2C[C@@H]1C2(C)C,"inconclusive: 100 µM [inhibitor, partial curve]"
8,COCCC(=O)NCCC1CCN(C(=O)Nc2ccc(C)cc2)CC1,inactive
9,Cc1cc(CNC(=O)c2cc(-c3ccco3)nc3c(Cl)cccc23)no1,inactive
10,Cc1nc(CN2C[C@H](C(=O)Nc3ccccc3)C[C@@H]2c2ccc(F)cc2)cs1,active: 70.8 µM
11,COc1cc(CNC(=O)[C@H]2CCC[C@H]2NC(=O)c2ccc(OC)nc2)cc(OC)c1,inactive
12,O=[S+]1([O-])NC2(CCN(Cc3cccc(C(F)(F)F)c3)C2)COc2ncccc21 (centres undefined),inactive
13,O=C(c1ccc(F)cc1Cl)N1CCN(C(=O)c2nnn3c2COC(c2ccccc2)C3)CC1 (centres undefined),"inconclusive: 50.1 µM [inhibitor, partial curve, poor fit]"
14,O=C1NC2(CCN(C(=O)c3ccc(Cl)cc3)CC2)COc2ccccc21,inactive
15,COc1ccc(-c2ccc3onc(C)c3n2)cc1OC,"inconclusive: 112 µM [inhibitor, partial curve, poor fit]"
16,COc1ccc(-c2ccc(C(=O)Nc3ccccc3F)c(Cl)c2)nn1,"inconclusive: 22.4 µM [inhibitor, full curve, poor fit]"
17,Cc1ccc(NC(=O)c2cc3n(n2)CC(c2ccc4c(c2)OCO4)OC3)cc1C (centres undefined),"inconclusive: 79.4 µM [inhibitor, single point]"
18,COc1ccccc1-c1cnc(NC(=O)c2ccc(F)c(Cl)c2)c2c1CCO2,"inconclusive: 11.2 µM [inhibitor, full curve, poor fit]"
19,Cc1nc(CCC(=O)NCc2cc(Cl)cc3c(C)c(-c4ccccc4)[nH]c23)n[nH]1,"inconclusive: 50.1 µM [inhibitor, partial curve, poor fit]"
20,CCCCN1CCN(C(=O)CCc2cc3ccc(C)cc3[nH]c2=O)CC1,inactive
